Measurements taken from US20260098070A1 (DEM BIOPHARMA, published 2026).

Target: T1, CD177 expressed on transfected HEK293 cells (human, UniProt Q8N6Q3 22-408)
T1 construct: whole, on cells; also called CD177-overexpressing cells; CD177-expressing cells
T1 sequence (looked up): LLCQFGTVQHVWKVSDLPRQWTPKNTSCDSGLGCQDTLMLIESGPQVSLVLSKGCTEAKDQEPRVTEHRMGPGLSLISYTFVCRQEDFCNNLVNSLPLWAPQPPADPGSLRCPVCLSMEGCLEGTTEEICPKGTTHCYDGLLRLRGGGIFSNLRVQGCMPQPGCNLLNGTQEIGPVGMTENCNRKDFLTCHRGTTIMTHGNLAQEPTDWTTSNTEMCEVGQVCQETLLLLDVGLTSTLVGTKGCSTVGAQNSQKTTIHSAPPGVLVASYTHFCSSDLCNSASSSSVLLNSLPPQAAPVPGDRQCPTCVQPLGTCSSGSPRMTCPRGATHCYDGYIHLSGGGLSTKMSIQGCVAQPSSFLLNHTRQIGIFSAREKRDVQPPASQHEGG
Assay: flow cytometry, live HEK293 transfectants, 5 µg/mL probe, AF647 anti-human Fc, duplicate
Method: Binding of hSMAGP ECD-hIgG1 Fc to CD177 was reevaluated in a live cell assay using flow cytometry. HEK293 cells were transfected with expression vectors encoding ZsGreen1 only (Control) or ZsGreen1 and CD177. Live cell transfectants, including Control-only transfected cells, were incubated with 5 μg/mL of hSMAGP ECD-hIgG1 Fc. Cells were washed and the binding was detected using AF647-labeled anti-human Fc secondary antibody by flow cytometry. The assays were performed in duplicate.

B1: hSMAGP ECD-hIgG1 Fc (Fc fusion)
chain: not shown
notes: Biotinylated (EZ-link NHS-LC-LC-biotin) in the lectin microarray and ELISA assays; also called human SMAGP ECD-hIgG1 Fc; HuSMAGP-hIgG1
  fold change in median fluorescence intensity over control cells: 157 fold
